Experimental data reported in the supplement of paper PMC4604168 (melanoma cell lines).
The list shows a part of the results. Repeats are few or missing, and single values can be far off.

How the values were obtained:
Test in all cases: cell count relative to DMSO control; melanoma cells; higher = more viable cells
Settings in all cases: library dose: low library concentration; 72 h
MZ2-MEL = test system: MZ2-MEL
MeWo = test system: MeWo
RPMI7951 = test system: RPMI7951
RVH-421 = test system: RVH-421
SkMel28 = test system: SkMel28
SkMel30 = test system: SkMel30
UACC62 = test system: UACC62
SkMel5 = test system: SkMel5
UACC257 = test system: UACC257
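Note: cell number obtained by counting DAPI-stained nuclei in high-throughput microscope images with image analysis software, screen run in 1,536-well plates.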

Structure (SMILES) | cell count (MZ2-MEL) [%] | cell count (MeWo) [%] | cell count (RPMI7951) [%] | cell count (RVH-421) [%] | cell count (SkMel28) [%] | cell count (SkMel30) [%] | cell count (UACC62) [%] | cell count (SkMel5) [%] | cell count (UACC257) [%]
CCCCCCCCCCCCCCCCCCOP(=O)([O-])OC1CC[N+](C)(C)CC1 [Perifosine] + C[C@]12O[C@H](C[C@]1(O)CO)n1c3ccccc3c3c4c(c5c6ccccc6n2c5c31)CNC4=O [Lestaurtinib] (first compound 0.4 µM, partner dose 0.004 µM) | 97.4 | 85.5 | 98.3 | 104 | 87.2 | 96.7 | 90.6 |  | 
NC(=O)c1ccc(N(C(N)=O)c2c(F)cccc2F)nc1-c1ccc(F)cc1F + C[C@]12O[C@H](C[C@]1(O)CO)n1c3ccccc3c3c4c(c5c6ccccc6n2c5c31)CNC4=O [Lestaurtinib] (first compound 0.4 µM, partner dose 0.004 µM) | 108 | 96.6 | 96.6 | 93.8 | 115 | 86.5 | 84.4 |  | 
O=C(Nc1cc(C(F)(F)F)cc(C(F)(F)F)c1)c1cc(Cl)ccc1O + C[C@]12O[C@H](C[C@]1(O)CO)n1c3ccccc3c3c4c(c5c6ccccc6n2c5c31)CNC4=O [Lestaurtinib] (first compound 0.016 µM, partner dose 0.004 µM) | 104 | 90.2 | 113 | 112 | 84.8 | 115 | 112 |  | 
CN(NC(=O)CC(=O)NN(C)C(=S)c1ccccc1)C(=S)c1ccccc1 + Cc1cc(SCc2sc(-c3ccc(C(F)(F)F)c(F)c3)nc2C)ccc1OCC(=O)O [GW0742] (first compound 0.006 µM, partner dose 2 µM) | 101 |  | 117 | 109 | 114 | 72.3 | 87.1 | 105 | 124
O=C(/C=C/c1cccnc1)NCCCCC1CCN(C(=O)c2ccccc2)CC1 + C[C@]12O[C@H](C[C@]1(O)CO)n1c3ccccc3c3c4c(c5c6ccccc6n2c5c31)CNC4=O [Lestaurtinib] (first compound 0.01 µM, partner dose 0.004 µM) | 44.8 | 89.6 | 94.2 | 53.4 | 74.4 | 88.1 | 106 |  | 
Cc1ccc(NC(=O)c2cccc(N(C)C)c2)cc1NC(=O)c1ccc(O)cc1 + Cc1cc(SCc2sc(-c3ccc(C(F)(F)F)c(F)c3)nc2C)ccc1OCC(=O)O [GW0742] (first compound 2 µM, partner dose 2 µM) |  | 95.7 | 92.9 | 108 | 92.5 | 76.3 | 103 | 87.9 | 86.5
O=C(Nc1ccccc1)c1cc([N+](=O)[O-])ccc1Cl + Cc1cc(SCc2sc(-c3ccc(C(F)(F)F)c(F)c3)nc2C)ccc1OCC(=O)O [GW0742] (first compound 2 µM, partner dose 2 µM) | 89.4 | 90.3 | 106 | 91.9 | 77.9 | 132 | 82.1 | 107 | 106
Cc1cn(-c2cc(NC(=O)c3ccc(C)c(Nc4nccc(-c5cccnc5)n4)c3)cc(C(F)(F)F)c2)cn1 [nilotinib] + C[As](C)SC[C@H](NC(=O)CC[C@H](N)C(=O)O)C(=O)NCC(=O)O [Darinaparsin] (first compound 0.2 µM, partner dose 0.4 µM) | 91.5 | 92 | 84.5 | 94.2 | 92 | 77.8 | 94 |  | 
Cn1cnc2c(F)c(Nc3ccc(Br)cc3Cl)c(C(=O)NOCCO)cc21 [selumetinib] + C[C@]12O[C@H](C[C@]1(O)CO)n1c3ccccc3c3c4c(c5c6ccccc6n2c5c31)CNC4=O [Lestaurtinib] (first compound 0.015 µM, partner dose 0.004 µM) | 82.2 | 92.2 | 95.4 | 81.8 | 78.2 | 55.6 | 63.6 |  | 
CC(=O)O[C@@]12CO[C@@H]1C[C@H](O)[C@@]1(C)C(=O)[C@H](O)C3=C(C)[C@@H](OC(=O)[C@H](O)[C@@H](NC(=O)OC(C)(C)C)c4ccccc4)C[C@@](O)([C@@H](OC(=O)c4ccccc4)[C@H]21)C3(C)C [Docetaxel] + C[As](C)SC[C@H](NC(=O)CC[C@H](N)C(=O)O)C(=O)NCC(=O)O [Darinaparsin] (first compound 0.0001 µM, partner dose 0.4 µM) |  | 43.2 | 40.6 | 55.8 | 59.8 | 33.4 | 42.7 |  | 
NC(=O)Nc1cc(-c2cccc(F)c2)sc1C(=O)N[C@H]1CCCNC1 + Cc1cc(SCc2sc(-c3ccc(C(F)(F)F)c(F)c3)nc2C)ccc1OCC(=O)O [GW0742] (first compound 0.02 µM, partner dose 2 µM) | 109 | 94.3 | 99.7 | 113 | 107 | 98.3 | 103 | 102 | 118
